The results in this text go back to PubChem BioAssay AID360 (National Center for Advancing Translational Sciences (NCATS), 2006).

Molecules are shown by their SMILES. About 550 (1.1%) of roughly 48,000 compounds were called active. Inconclusive results (about 4%) are left out. Cut-off read from the data, not from the text of the source: active = potency below about 15 µM; inconclusive = mostly about 16 µM to 33 µM; inactive = weaker than that. This is one part of the list.
Potency is the fitted concentration of half-maximal effect.

The assay deals with Lysosomal acid glucosylceramidase (Homo sapiens) (UniProt P04062). Put plainly: Glucocerebrosidase.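 Note: the screen sought inhibitors.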 Particulars: purified enzyme, resorufin glucoside fluorescence (screen aimed at inhibitors), 20 min. In outline: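 Normal human glucocerebrosidase (0.2 nM final) was assayed with resorufin β-D-glucopyranoside (30 uM final) in 50mM citric acid/KH2PO4, 10mM sodium taurocholate, 0.01% tween-20, pH 5.9. Compounds were titrated; fluorescence (Ex 548, Em 600) read after 20 min at RT.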
Sequence of UniProt P04062 (P04062 whole entry, looked up): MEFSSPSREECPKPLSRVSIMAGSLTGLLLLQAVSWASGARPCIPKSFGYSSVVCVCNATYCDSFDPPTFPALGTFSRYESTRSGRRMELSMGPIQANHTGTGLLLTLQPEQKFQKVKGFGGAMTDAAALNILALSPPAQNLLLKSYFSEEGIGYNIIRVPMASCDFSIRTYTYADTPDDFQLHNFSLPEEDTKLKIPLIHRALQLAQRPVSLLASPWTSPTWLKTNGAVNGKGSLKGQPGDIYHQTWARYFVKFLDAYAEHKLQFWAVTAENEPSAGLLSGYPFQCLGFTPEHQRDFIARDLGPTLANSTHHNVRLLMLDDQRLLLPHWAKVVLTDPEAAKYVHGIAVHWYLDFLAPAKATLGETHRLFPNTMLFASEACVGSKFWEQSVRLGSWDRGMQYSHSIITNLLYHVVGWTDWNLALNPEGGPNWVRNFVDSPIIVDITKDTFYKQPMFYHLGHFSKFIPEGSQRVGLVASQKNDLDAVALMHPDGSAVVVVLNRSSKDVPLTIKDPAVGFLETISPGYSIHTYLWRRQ
Take `O=C(CSc1nn(-c2ccc(Cl)cc2)c(=S)s1)N1CCN(C(=O)c2ccco2)CC1`: the Potency is inactive: > 76.9 µM.

As for `CCNC(=O)NC(=O)COC(=O)c1ccccc1SCC(=O)NC(=O)NCC`, the Potency is inactive: > 76.9 µM.

In the case of `CN(Cc1ccccc1)C(=O)Nc1ccccc1`, the Potency was inactive: > 76.9 µM.

In the case of `CCOc1ccc(C(=O)Nc2ccc3c(c2)OCCO3)cc1OC`, the Potency was inactive: > 76.9 µM.

`Cc1cccc(CS(=O)(=O)Cc2ccc(C(=O)NCc3ccco3)o2)c1`: the Potency is inactive: > 76.9 µM.

With `CCOC(=O)c1c(CN2CCCCC2)oc2ccc(O)cc12`, the Potency is inactive: > 76.9 µM.

Consider `COc1ccc(N(CC(=O)N2CCc3ccccc32)S(=O)(=O)c2c(C)n[nH]c2C)cc1`, for which the Potency was inactive: > 76.9 µM.

For the molecule `CCC(=O)Nc1nc2cc(OC)ccc2s1`, the Potency was inactive: > 76.9 µM.

In the case of `COCCOC(=O)C1=C(C)NC2=C(C(=O)CC(c3cccs3)C2)C1c1ccsc1` (stereo not given), the Potency was inactive: > 76.9 µM.

For `COc1ccc(OC)c(S(=O)(=O)N(C)CC(=O)N2CCN(c3cccc(Cl)c3)CC2)c1`, the Potency was inactive: > 76.9 µM.

For `COc1ccccc1NC(=O)CSc1nnc(-c2ccco2)n1Cc1ccco1`, the Potency was inactive: > 76.9 µM.

As to `CC(C)CNC(=O)c1cccc(NC(=O)c2ccc(NC(=O)c3ccco3)cc2)c1`, the Potency is inactive: > 76.9 µM.

Regarding `CNC(=O)Nc1ccccc1C(=O)NCc1ccccc1`, the Potency is inactive: > 76.9 µM.

For the molecule `CN1CCN(C(=O)c2ccc(NS(=O)(=O)c3ccccc3)cc2)CC1`, the Potency was inactive: > 76.9 µM.

`CCOc1ccc(OCc2ccc(C(=O)OCc3ccccn3)o2)cc1`: the Potency was inactive: > 76.9 µM.

`CC(C)NC(=O)CSc1nnc(-c2ccc(S(=O)(=O)N3CCCC3)cc2)n1CC1CCCO1` (stereo not given): the Potency was inactive: > 76.9 µM.

Take `O=C(c1ccco1)N1CCN(C(=O)C2CC(c3ccc(Cl)c(Cl)c3)=NO2)CC1` (stereo not given): the Potency was inactive: > 76.9 µM.

Take `CCOC(=O)C1=C(C)N(CCO)C(=O)NC1c1cccc(O)c1` (stereo not given): the Potency was inactive: > 76.9 µM.

As for `CC(=O)Cc1nsc(NC(=O)c2ccc(-c3ccc(Cl)c(C(F)(F)F)c3)o2)n1`, the Potency is inactive: > 76.9 µM.

For `COc1ccc(-c2nnc(SCC(=O)N3CCCc4ccccc43)o2)cc1OC`, the Potency is inactive: > 76.9 µM.

As to `Cc1ccc2c(c1)nnn2C1CCN(CC(=O)N2c3ccccc3CC2C)CC1` (stereo not given), the Potency is inactive: > 76.9 µM.

Take `O=C(CN1CCCc2ccccc21)NC(=O)NCc1ccco1`: the Potency is inactive: > 76.9 µM.

Regarding `O=C(CN1CCC(n2nnc3cc(F)ccc32)CC1)N1CCCc2ccccc21`, the Potency is inactive: > 76.9 µM.

Regarding `O=C(CCCCn1c(=O)c2ccccc2n(CC(=O)Nc2ccc(F)cc2)c1=O)NCc1ccco1`, the Potency result was “inactive”.

Turning to `COc1cccc(OCc2nnc(SCC(=O)OCc3ccccc3)o2)c1`, the Potency was inactive: > 76.9 µM.

Turning to `Cc1ccc(OCCSc2nnc(NC(=O)c3ccco3)s2)cc1`, the Potency is inactive: > 76.9 µM.

`O=S(=O)(NCC1CCCO1)c1ccc(Cl)c(C(F)(F)F)c1` (stereo not given): the Potency is inactive: > 76.9 µM.

As for `O=C(OC(C(=O)NCc1cccs1)c1ccccn1)c1cccs1` (stereo not given), the Potency is inactive: > 76.9 µM.

Turning to `CC(=O)Nc1ccc(C(=O)Cn2nnc3ccccc3c2=O)cc1`, the Potency is inactive: > 76.9 µM.

On to `NC(=O)CSc1nnc(Cc2csc(Nc3ccccc3)n2)n1Cc1ccccc1`, for which the Potency entry was “inactive”.

Consider `O=C(NCc1ccco1)c1ccccc1Br`, for which the Potency is inactive: > 76.9 µM.

Turning to `Cc1cc(C(=O)COC(=O)CN(C)S(=O)(=O)c2ccc(Cl)cc2)c(C)n1Cc1cccs1`, the Potency is inactive: > 76.9 µM.

Turning to `O=C(CCn1nnc(-c2cccs2)n1)NC1CCCCC1`, the Potency was inactive: > 76.9 µM.

As for `CCCC(c1nnnn1Cc1ccco1)N1CCN(C(=O)c2ccco2)CC1` (stereo not given), the Potency is inactive: > 76.9 µM.

Take `CC(=O)N1CCc2cc(S(=O)(=O)NCCC(=O)N3CCN(c4ccccn4)CC3)ccc21`: the Potency is inactive: > 76.9 µM.

In the case of `O=C(C1CCCCC1)N1CCC(c2nc3ccccc3[nH]2)CC1`, the Potency is inactive: > 76.9 µM.

Consider `CC1(C)C(c2cccs2)=[N+]([O-])C2(CCCCC/C2=N\O)N1O` (stereo not given), for which the Potency was inactive: > 76.9 µM.

On to `C=CCn1c(COc2ccccc2)nnc1SCC(=O)NCC(=O)OCC`, for which the Potency is inactive: > 76.9 µM.

On to `O=c1c2ccccc2nc(SCc2cn3ccsc3n2)n1-c1ccccc1`, for which the Potency result was “inactive”.

Regarding `O=C(CNS(=O)(=O)c1cccc2nsnc12)NC1CCCCC1`, the Potency is inactive: > 76.9 µM.

`CC(=O)Nc1sc(NC(=O)c2ccccc2)nc1-c1cccs1`: the Potency is inactive: > 76.9 µM.

`COc1ccccc1NC(=O)CCc1c(C)[nH]c(=O)c(C#N)c1C`: the Potency is inactive: > 76.9 µM.

Take `CCOc1ccccc1C(=O)NCC(=O)OCC(=O)NCCc1ccc(S(N)(=O)=O)cc1`: the Potency was inactive: > 76.9 µM.

`O=c1c2cn[nH]c2[nH]c(=S)n1-c1ccccc1F`: the Potency is inactive: > 76.9 µM.

Regarding `CCN1CCN(C(=O)c2ccc3c(=O)n(Cc4ccccc4OC)c(=S)[nH]c3c2)CC1`, the Potency was inactive: > 76.9 µM.

As to `COc1ccc(CNC(=O)c2cc3c(=O)n4ccccc4nc3n(Cc3cccnc3)c2=N)cc1`, the Potency is inactive: > 76.9 µM.

In the case of `Cn1cc(C(=O)NCCN2CCN(c3cccc(Cl)c3)CC2)c2c3ccccc3n(C)c2c1=O`, the Potency was inactive: > 76.9 µM.

For `COc1ccc(C)cc1S(=O)(=O)N(CC(=O)N1CCOCC1)Cc1ccccc1`, the Potency was inactive: > 76.9 µM.

`Cc1oc(C)c(C(N)=O)c1C(N)=O`: the Potency is inactive: > 76.9 µM.

Take `Cc1cc(C)n(-c2nc(C)nc3sc4c(c23)CCC(C)C4)n1` (stereo not given): the Potency was inactive: > 76.9 µM.

Consider `CC(=O)c1c(C(C)=O)c(C)n(Cc2ccc3c(c2)OCO3)c1C`, for which the Potency was inactive: > 76.9 µM.

Turning to `CCN(CC)c1ccc(NC(=O)c2ccco2)cc1`, the Potency was inactive: > 76.9 µM.

Regarding `CCCOc1ccc(N2CC(C(=O)Nc3ccccc3F)CC2=O)cc1` (stereo not given), the Potency is inactive: > 76.9 µM.

With `COc1ccc2nc(NC(=O)CSC3=NCCS3)sc2c1`, the Potency was inactive: > 76.9 µM.

With `CCCC(=O)Nc1ccccc1NC(C)=O`, the Potency is inactive: > 76.9 µM.

Regarding `COC(=O)CNC(=O)COC(=O)c1cc(Cl)cc(Cl)c1N`, the Potency is inactive: > 76.9 µM.

For `C=CCSC1=C(C#N)C(c2ccccc2C)CC(=O)N1` (stereo not given), the Potency is inactive: > 76.9 µM.

As to `O/N=C1\CC/C(=N\O)c2nn(-c3ccccc3Cl)nc21`, the Potency is inactive: > 76.9 µM.

With `O=S(=O)(c1ccc2c(c1)nc1n2CCC1)N1CCOCC1`, the Potency is inactive: > 76.9 µM.

Take `Cc1ccc(-n2c3c(cc(C(=O)NC4CCSC4=O)c2=O)C(=O)CCC3)cc1` (stereo not given): the Potency is inactive: > 76.9 µM.

In the case of `Cc1ccc2oc(=O)cc(CN3CCOCC3)c2c1`, the Potency is inactive: > 76.9 µM.

Regarding `N#Cc1nc(-c2ccc(Cl)cc2)oc1NCc1cccc2c1OCO2`, the Potency was inactive: > 76.9 µM.

As for `Cc1ccc(-c2n[nH]c(=O)c3ccccc23)cc1N`, the Potency is inactive: > 76.9 µM.

As for `CCn1c(SCc2cccnc2)nc2c1c(=O)n(C)c(=O)n2C`, the Potency is inactive: > 76.9 µM.

Take `O=C(O)C1Sc2[nH]c(=O)sc2C2c3cc(Cl)ccc3OC(=O)C12` (stereo not given): the Potency was inactive: > 76.9 µM.

Turning to `O=C(c1cccc(Br)c1)N1CCN(C(=O)N2CCCCC2)CC1`, the Potency is inactive: > 76.9 µM.

For the molecule `CS(=O)(=O)N(CC(=O)NCc1cccnc1)Cc1ccc(Cl)cc1`, the Potency was inactive: > 76.9 µM.

Turning to `O=C(Nc1c2c(nn1-c1ccc(F)cc1)CSC2)c1ccc(S(=O)(=O)N2CCOCC2)cc1`, the Potency was inactive: > 76.9 µM.

With `CC(C)NC(=O)CN(CCc1ccccc1)S(C)(=O)=O`, the Potency is inactive: > 76.9 µM.

For `CCOc1cc(N2CCOCC2)c(OCC)cc1NC(=O)Cn1[nH]c(=O)c2ccccc2c1=O`, the Potency is inactive: > 76.9 µM.

For `CCn1c(SCC(=O)Nc2ccc3c(c2)OCCO3)nc2c(c1=O)SC(C)C2` (stereo not given), the Potency is inactive: > 76.9 µM.

Take `O=C(c1cccs1)N1CCN(CCc2ccccc2)CC1`: the Potency was inactive: > 76.9 µM.

On to `O=S(=O)(NC1CCCCCCC1)c1cccs1`, for which the Potency is inactive: > 76.9 µM.

Consider `CCc1ccccc1N(CC(=O)O)S(C)(=O)=O`, for which the Potency is inactive: > 76.9 µM.

Regarding `COc1ccc(N2CCN(S(=O)(=O)c3cccc(C(F)(F)F)c3)CC2)cc1`, the Potency is inactive: > 76.9 µM.

Regarding `COC(=O)c1sc(N)c(C(=O)OC)c1CSc1nc2sc3c(c2c(=O)n1C)CCC3`, the Potency was inactive: > 76.9 µM.

Regarding `Cc1ccccc1CSc1nnc(-c2ccccn2)n1N`, the Potency was inactive: > 76.9 µM.

`N#Cc1ccc(OCCN2C(=O)NC3(CCSC3)C2=O)cc1` (stereo not given): the Potency is inactive: > 76.9 µM.

With `Cn1c(=O)n(C)c2cc(C(N)=O)ccc21`, the Potency is inactive: > 76.9 µM.

Take `CCOc1cccc(NC(=O)CC#N)c1`: the Potency was inactive: > 76.9 µM.

As to `CCOc1cc(C(=O)N2CCN(c3ccc(C(C)=O)cc3)CC2)cc(OCC)c1OCC`, the Potency was inactive: > 76.9 µM.

Turning to `Cc1ccc(C(=O)Cn2c(C)cc(C)c(C#N)c2=O)cc1`, the Potency was inactive: > 76.9 µM.

As to `CCCCN(C(=O)NC(=O)Nc1cccc(C)c1C)S(C)(=O)=O`, the Potency is inactive: > 76.9 µM.

For `CCOC(=O)C1CCCN(c2cc(=O)n(Cc3ccc(F)cc3)c(=O)[nH]2)C1` (stereo not given), the Potency is inactive: > 76.9 µM.

For `O=C1CC(/C=C/c2ccco2)=Nc2ccccc2N1`, the Potency is inactive: > 76.9 µM.

For `CCc1c(C)nc(N2CCOCC2)[nH]c1=O`, the Potency is inactive: > 76.9 µM.

With `CC(C)Cn1c(N)c(C(=O)COC(=O)c2ccc3ccccc3n2)c(=O)n(C)c1=O`, the Potency was inactive: > 76.9 µM.

For `COc1cc(C(=O)NCc2cn3ccsc3n2)cc(OC)c1OC`, the Potency was inactive: > 76.9 µM.

`COc1ccc2[nH]c(=O)c(CN(C(=O)c3ccco3)C3CCCCC3)cc2c1`: the Potency was inactive: > 76.9 µM.

`COC(=O)c1[nH]c2ccc(C)cc2c1NC(=O)CCN1CCN(C2CCCCC2)CC1`: the Potency is inactive: > 76.9 µM.
